# Laboratory results reported in publication PMC4336329 (PLoS ONE, 2015).
# The whole screen tested about 310,000 compounds, of which about 14,000 (4.5%) showed an effect of 50% or more. Effects have a minus sign here. The list shows a part of the results.
# Target: human ether-à-go-go-related gene (hERG) potassium channel (human, UniProt Q12809)
# Assay: primary screen, population patch clamp on CHO cells stably expressing hERG
# 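Also: peak tail current of the secondary pulse compared with the same well before compound.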
# Sequence of human ether-à-go-go-related gene (hERG) potassium channel (Q12809 whole entry, looked up): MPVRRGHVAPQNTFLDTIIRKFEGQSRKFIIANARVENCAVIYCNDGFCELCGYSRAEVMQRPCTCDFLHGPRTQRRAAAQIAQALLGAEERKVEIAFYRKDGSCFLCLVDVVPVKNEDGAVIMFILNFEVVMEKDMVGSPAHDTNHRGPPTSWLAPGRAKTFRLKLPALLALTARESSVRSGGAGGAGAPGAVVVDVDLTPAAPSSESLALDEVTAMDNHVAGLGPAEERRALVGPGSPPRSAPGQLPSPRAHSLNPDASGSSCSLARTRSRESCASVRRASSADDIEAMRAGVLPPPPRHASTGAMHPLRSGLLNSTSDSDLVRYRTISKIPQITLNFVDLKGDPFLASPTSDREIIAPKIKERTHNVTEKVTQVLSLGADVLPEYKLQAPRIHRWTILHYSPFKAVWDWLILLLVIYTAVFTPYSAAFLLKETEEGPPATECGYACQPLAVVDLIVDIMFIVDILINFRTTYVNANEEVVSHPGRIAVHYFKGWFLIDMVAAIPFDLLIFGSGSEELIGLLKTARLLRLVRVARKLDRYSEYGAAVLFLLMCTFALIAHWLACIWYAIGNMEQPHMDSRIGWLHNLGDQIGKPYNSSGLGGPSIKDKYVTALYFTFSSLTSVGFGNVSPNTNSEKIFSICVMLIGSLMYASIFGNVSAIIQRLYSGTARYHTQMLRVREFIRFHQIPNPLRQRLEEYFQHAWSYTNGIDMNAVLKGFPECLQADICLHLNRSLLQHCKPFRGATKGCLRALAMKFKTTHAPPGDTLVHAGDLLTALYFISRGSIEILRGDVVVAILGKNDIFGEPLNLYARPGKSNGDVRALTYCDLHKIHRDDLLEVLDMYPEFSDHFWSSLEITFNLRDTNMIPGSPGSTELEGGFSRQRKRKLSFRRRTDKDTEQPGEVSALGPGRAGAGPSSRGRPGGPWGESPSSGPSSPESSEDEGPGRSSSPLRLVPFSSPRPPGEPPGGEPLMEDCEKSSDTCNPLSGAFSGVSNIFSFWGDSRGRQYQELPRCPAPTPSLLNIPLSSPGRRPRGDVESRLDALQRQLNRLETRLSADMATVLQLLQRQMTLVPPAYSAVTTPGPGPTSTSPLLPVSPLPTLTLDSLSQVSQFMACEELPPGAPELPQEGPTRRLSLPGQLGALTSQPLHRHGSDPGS
row,Compound,"hERG current change (%, negative = inhibition) at 10uM [%]"
1,O=C(NNC(=O)c1ccccc1O)c1ccc(-c2ccc([N+](=O)[O-])cc2)o1,-7
2,Cc1ccc(S(=O)(=O)NC(=NC(Cc2ccccc2)C(=O)O)c2ccccc2)cc1 (stereo not shown),7.98
3,O=C(Nc1ccc(N2CCOCC2)cc1)c1ccc2nc(-c3ccco3)c(-c3ccco3)nc2c1,-0.891
4,CC1(C)Cc2ccccc2C(=O)N1,12.6
5,Cc1cc(NC(=O)CCCn2ccc([N+](=O)[O-])n2)n(Cc2ccc(F)cc2)n1,4.85
6,O=C(COc1ccccc1[N+](=O)[O-])N(Cc1ccco1)C1CCS(=O)(=O)C1 (stereo not shown),-6.3
7,CC(=O)c1cccc(NC(=O)C2CCN(C(=O)c3ccccc3Cl)CC2)c1,-0.359
8,NC(=O)C1CCN(C(=O)c2ccc(Cl)c(S(=O)(=O)NCc3ccco3)c2)CC1,7.09
9,Cc1ccc2nc(C)cc(N3CCOCC3)c2c1.Cl,-23.8
10,CC1(C)CC(=O)CC2(C1)NCC(c1ccccc1)c1c2[nH]c2ccccc12.Cl (stereo not shown),-85.8
11,Cc1nc(N2CCOCC2)sc1C=O,4.26
12,O=C(O)CCc1nc2ccccc2n(CCc2ccccc2)c1=O,4.04
13,CC1CCCC(C)N1S(=O)(=O)c1ccc(NC(=O)CCn2cnc3ccccc3c2=O)cc1 (stereo not shown),7.94
14,Cc1ccc(-c2ccc(=O)n(CC(=O)NCCCN3CCCCC3)n2)cc1,-9.02
15,Cc1ccc(C)c(NC(=O)C(=O)NCCCN2CCOCC2)c1,-1.45
16,COC(=O)c1[nH]c2c(c1C)C(=O)CC(c1cccs1)C2 (stereo not shown),8.52
17,Cc1cccc(C)c1NC(=S)N1CCCCCC1,11.7
18,CC1CCCC(C)N1C(=O)COC(=O)c1cccc(S(=O)(=O)N(C)c2ccccc2)c1 (stereo not shown),-27.2
19,COc1ccc2oc(=O)cc(-c3cc4ccccc4o3)c2c1,0.523
20,COc1nsnc1NS(=O)(=O)c1ccc(NC(=S)NC(=O)c2ccncc2)cc1,7.08
21,COc1ccc(C2c3c(ncn(CCCO)c3=N)Oc3ccc4ccccc4c32)cc1 (stereo not shown),-33.9
22,COc1ccc(-n2c(-c3ccc(Br)cc3)c[n+]3c2CCC3)cc1.[Br-],-56
23,Nc1cnn(-c2ccccc2)c(=O)c1Cl,13.8
24,CC1(C)c2[nH]c3ccccc3c2C[C@@H]2C(=O)N(Cc3ccc(F)cc3)C(=O)N21,-0.197
25,Cc1cc(C)cc(NC(=O)C2CCCN(S(=O)(=O)c3cnc[nH]3)C2)c1 (stereo not shown),-3.46
26,O=C([O-])/C=C/C(O)c1ccc(Cl)cc1.[Na+] (stereo not shown),18.7
27,Cc1ccc(-c2nc(CC(=O)Nc3cccc(S(=O)(=O)NC4=NCCC4)c3)cs2)cc1,6.43
28,CCN(CC)c1ccc(/C=C/c2cc(-c3ccccc3)c3ccccc3n2)cc1,5.29

row,Compound,"hERG current change (%, negative = inhibition) at 10uM [%]"
1,Cc1cc(C)nc(NC(=O)c2ccc(C)o2)n1,18.3
2,COc1cc(C(=O)N2CCCCCCC2)ccc1OC1CCN(C(C)=O)CC1,-49
3,O=C1NC2NC(=O)N([N+](=O)[O-])C2N1 (stereo not shown),14.6
4,Cc1cc(C#N)c2ccccc2n1,11.2
5,CCCCOC(=O)CSc1nc(N)c(C#N)c(-c2ccc(OCC)cc2)c1C#N,15.7
6,CCOC(=O)Cn1nnc(-c2ccc(OCC(C)C)cc2)n1,10.2
7,CCOc1cc(CNc2ccc3c(c2)OCCO3)cc(Br)c1OCC(N)=O,-17.6
8,COc1cc(CCC(=O)N2CCN(c3ccc(N4CCOCC4)nn3)CC2)cc(OC)c1OC,-9.65
9,Cc1ccc(NC(=O)NCCc2ccc(S(N)(=O)=O)cc2)cc1,17.5
10,N#CC1=C2SCN(Cc3ccco3)CN2C(=O)CC1c1ccc(Cl)cc1 (stereo not shown),11.7
11,CCc1nnc(NC(=O)c2cc(-c3ccccc3)nn2-c2ccccc2)s1,10.3
12,O=C(O)c1ccc2c(c1Sc1ccccc1)C(=O)c1ccccc1C2=O,-4.82
13,CCc1ccccc1NC(=O)N1C[C@H]2C[C@@H](C1)c1cccc(=O)n1C2,12.7
14,CCc1ccc(NC(=O)CCn2nc(C)c(S(=O)(=O)N3CCCCC3)c2C)cc1,-22.7
15,O=C(Nc1nnc(C2=COCCO2)o1)c1ccc(F)cc1,14.2
16,CCCN1CCN(CCNC(=O)Nc2cc(C)ccc2C)CC1,-39.8
17,Nc1nonc1-n1nnc(C(=O)N/N=C/c2ccc(OCc3ccccc3)cc2)c1COc1ccc(F)cc1,-5.88
18,CN(CC(=O)Nc1cccc(F)c1)CC(=O)Nc1cccc([N+](=O)[O-])c1,-39.7
19,COc1ccc(C)c2sc(N(CCCN(C)C)C(=O)c3ccc(S(=O)(=O)N(C)C)cc3)nc12.Cl,-61.5
20,O=C(NCCc1ccccc1Cl)c1ccc2nc3ccccc3c(=O)n2c1,-1.14
21,COc1cc2c(cc1OC)CN(C(=O)c1sccc1C)CC2,1.41
22,O=C(CSc1nc(-c2ccccc2)nc2c1CCCC2)N1CCOCC1,-1.06
23,Cc1ccc(NC(=O)CN(C)C(=O)c2ccc(OCc3cn4ccccc4n3)cc2)cc1,0.0233
24,COc1cc2c(cc1OC)C(CSc1ccccc1C(=O)O)=NC(C)(C)C2,17.3
25,COc1ccc(C2CC(C(F)(F)F)n3nc(C(=O)NCc4c(C)nn(C)c4C)c(Cl)c3N2)cc1 (stereo not shown),-7.16
26,COc1ccc(CC2C(=O)OC(C)(C)OC2=O)cc1,1.73
27,C=C1c2ccccc2NC(=O)N1c1ccc(OC)cc1,12.8
